{"source": "patent US11959486B2", "about": "“Stable liquid formulation of AMG 416 (etelcalcetide)” (AMGEN INC., priority 2013, dated 2024)", "key": {"[1]": {"conditions": "for Purity (%) at Time (Months) 0: 0 months; for Purity (%) at Time (Months) 0 / Purity (%) at Time (Months) 1 / Purity (%) at Time (Months) 2 / Purity (%) at Time (Months) 3 / Purity (%) at Time (Months) 5 / Purity (%) at Time (Months) 12 / Purity (%) at Time (Months) 24: 3.4 mg/mL in succinate-buffered saline; for Purity (%) at Time (Months) 1: 1 month; for Purity (%) at Time (Months) 2: 2 months; for Purity (%) at Time (Months) 3: 3 months; for Purity (%) at Time (Months) 5: 5 months; for Purity (%) at Time (Months) 12: 12 months; for Purity (%) at Time (Months) 24: 24 months", "protocol": "In this study, the long term stability of a liquid formulation of AMG 416, at a concentration of 3.4 mg/mL, was determined over a range of pH in succinate-buffered saline. USP purified water (1200 mL) was dispensed into a glass beaker. Sodium succinate (4.05 g) and sodium chloride (13.5 g) were added and stirred to dissolve. The pH was adjusted to 2.5 with 1N NaOH and/or 1N HCl as required. […] The solution was divided into three portions and the pH for each portion was adjusted to 2.5, 3.0 and 3.5, respectively. Each solution was filtered separately through 0.22 micron PVDF filter and dispense 2 mL to 5-cc vials. After being stoppered, sealed, and labeled, the vials were place in designated stability chambers at 5° C.±3, 25° C.±2, and 40° C.±2. Samples were retrieved according to schedule and diluted with deionized water to 1.0 mg/mL for HPLC analysis."}, "[2]": {"assay": "Solution stability in different buffers (acetate, citrate, lactate, succinate), HPLC (Example 5)", "assay_type": "physicochemical", "conditions": "0.25-2.5 mg/mL, 25 mM acetate, lactate or succinate buffered saline pH 4.5, 2-8° C. and RT, 0, 4, 9 days", "protocol": "In this study, the stability of liquid formulations of AMG 416 was evaluated in four different buffers over 9 days. Buffered saline solutions were prepared at 25 mM concentration, pH 4.5, for four different anionic buffers in the sodium salt form: acetate, citrate, lactate and succinate. […] The solutions were diluted further with pH 4.5 buffer to 1.0 mg/mL and 0.25 mg/mL. Each of the resulting solutions was split to two glass HPLC vials, one stored at 2-8° C. and one at room temperature (about 25° C.). HPLC analysis was conducted at 0, 4 and 9 days for determination of potency and purity."}}, "note": "Where two headings read alike, the source gives them in different places. At least one structure is not confirmed: it was looked up by name or label, or the drawing left a doubt."}
{"compound": "CC(=O)N[C@H](CSSC[C@H](N)C(=O)O)C(=O)N[C@H](C)C(=O)N[C@H](CCCNC(=N)N)C(=O)N[C@H](CCCNC(=N)N)C(=O)N[C@H](CCCNC(=N)N)C(=O)N[C@H](C)C(=O)N[C@H](CCCNC(=N)N)C(N)=O", "note": "[AMG 416, N-acetyl-D-cysteinyl-D-alanyl-D-arginyl-D-arginyl-D-arginyl-D-alanyl-D-arginamide disulfide with L-cysteine]", "values": [{"measurement": "Purity (%) at Time (Months) 0", "setting": "[1]; pH 2.5, 25° C.", "value": 99.2, "unit": "%"}, {"measurement": "Purity (%) at Time (Months) 1", "setting": "[1]; pH 2.5, 25° C.", "value": 96.9, "unit": "%"}, {"measurement": "Purity (%) at Time (Months) 2", "setting": "[1]; pH 2.5, 25° C.", "value": 95.2, "unit": "%"}, {"measurement": "Purity (%) at Time (Months) 3", "setting": "[1]; pH 2.5, 25° C.", "value": 93.4, "unit": "%"}, {"measurement": "Purity (%) at Time (Months) 5", "setting": "[1]; pH 2.5, 25° C.", "value": 89.3, "unit": "%"}, {"measurement": "Purity (%) at Time (Months) 12", "setting": "[1]; pH 2.5, 25° C.", "value": 80.9, "unit": "%"}, {"measurement": "Purity (%) at Time (Months) 24", "setting": "[1]; pH 2.5, 25° C.", "value": 68.5, "unit": "%"}, {"measurement": "Purity (%) at Time (Months) 0", "setting": "[1]; pH 2.5, 40° C.", "value": 99.2, "unit": "%"}, {"measurement": "Purity (%) at Time (Months) 1", "setting": "[1]; pH 2.5, 40° C.", "value": 88.8, "unit": "%"}, {"measurement": "Purity (%) at Time (Months) 2", "setting": "[1]; pH 2.5, 40° C.", "value": 81.9, "unit": "%"}, {"measurement": "Purity (%) at Time (Months) 3", "setting": "[1]; pH 2.5, 40° C.", "value": 75.3, "unit": "%"}, {"measurement": "Purity (%) at Time (Months) 5", "setting": "[1]; pH 2.5, 40° C.", "value": 60.9, "unit": "%"}, {"measurement": "Purity (%) at Time (Months) 12", "setting": "[1]; pH 2.5, 40° C.", "value": 39.1, "unit": "%"}, {"measurement": "Purity (%) at Time (Months) 24", "setting": "[1]; pH 2.5, 40° C.", "value": 20.4, "unit": "%"}, {"measurement": "Purity (%) at Time (Months) 0", "setting": "[1]; pH 3, 5° C.", "value": 99.2, "unit": "%"}, {"measurement": "Purity (%) at Time (Months) 1", "setting": "[1]; pH 3, 5° C.", "value": 99.1, "unit": "%"}, {"measurement": "Purity (%) at Time (Months) 2", "setting": "[1]; pH 3, 5° C.", "value": 99.1, "unit": "%"}, {"measurement": "Purity (%) at Time (Months) 3", "setting": "[1]; pH 3, 5° C.", "value": 99.2, "unit": "%"}, {"measurement": "Purity (%) at Time (Months) 5", "setting": "[1]; pH 3, 5° C.", "value": 98.7, "unit": "%"}, {"measurement": "Purity (%) at Time (Months) 12", "setting": "[1]; pH 3, 5° C.", "value": 98.3, "unit": "%"}, {"measurement": "Purity (%) at Time (Months) 24", "setting": "[1]; pH 3, 5° C.", "value": 97.7, "unit": "%"}, {"measurement": "Purity (%) at Time (Months) 0", "setting": "[1]; pH 3, 25° C.", "value": 99.2, "unit": "%"}, {"measurement": "Purity (%) at Time (Months) 1", "setting": "[1]; pH 3, 25° C.", "value": 98.2, "unit": "%"}, {"measurement": "Purity (%) at Time (Months) 2", "setting": "[1]; pH 3, 25° C.", "value": 97.5, "unit": "%"}, {"measurement": "Purity (%) at Time (Months) 3", "setting": "[1]; pH 3, 25° C.", "value": 96.7, "unit": "%"}, {"measurement": "Purity (%) at Time (Months) 5", "setting": "[1]; pH 3, 25° C.", "value": 95.0, "unit": "%"}, {"measurement": "Purity (%) at Time (Months) 12", "setting": "[1]; pH 3, 25° C.", "value": 91.1, "unit": "%"}, {"measurement": "Purity (%) at Time (Months) 24", "setting": "[1]; pH 3, 25° C.", "value": 84.6, "unit": "%"}, {"measurement": "Purity (%) at Time (Months) 0", "setting": "[1]; pH 3, 40° C.", "value": 99.2, "unit": "%"}, {"measurement": "Purity (%) at Time (Months) 1", "setting": "[1]; pH 3, 40° C.", "value": 93.7, "unit": "%"}, {"measurement": "Purity (%) at Time (Months) 2", "setting": "[1]; pH 3, 40° C.", "value": 90.2, "unit": "%"}, {"measurement": "Purity (%) at Time (Months) 3", "setting": "[1]; pH 3, 40° C.", "value": 86.4, "unit": "%"}, {"measurement": "Purity (%) at Time (Months) 5", "setting": "[1]; pH 3, 40° C.", "value": 78.9, "unit": "%"}, {"measurement": "Purity (%) at Time (Months) 12", "setting": "[1]; pH 3, 40° C.", "value": 61.6, "unit": "%"}, {"measurement": "Purity (%) at Time (Months) 24", "setting": "[1]; pH 3, 40° C.", "value": 39.2, "unit": "%"}, {"measurement": "Purity (%) at Time (Months) 0", "setting": "[1]; pH 3.5, 5° C.", "value": 99.2, "unit": "%"}, {"measurement": "Purity (%) at Time (Months) 1", "setting": "[1]; pH 3.5, 5° C.", "value": 99.2, "unit": "%"}, {"measurement": "Purity (%) at Time (Months) 2", "setting": "[1]; pH 3.5, 5° C.", "value": 99.2, "unit": "%"}, {"measurement": "Purity (%) at Time (Months) 3", "setting": "[1]; pH 3.5, 5° C.", "value": 99.2, "unit": "%"}, {"measurement": "Purity (%) at Time (Months) 5", "setting": "[1]; pH 3.5, 5° C.", "value": 98.8, "unit": "%"}, {"measurement": "Purity (%) at Time (Months) 12", "setting": "[1]; pH 3.5, 5° C.", "value": 98.6, "unit": "%"}, {"measurement": "Purity (%) at Time (Months) 24", "setting": "[1]; pH 3.5, 5° C.", "value": 98.3, "unit": "%"}, {"measurement": "Purity (%) at Time (Months) 0", "setting": "[1]; pH 3.5, 25° C.", "value": 99.2, "unit": "%"}, {"measurement": "Purity (%) at Time (Months) 1", "setting": "[1]; pH 3.5, 25° C.", "value": 98.6, "unit": "%"}, {"measurement": "Purity (%) at Time (Months) 2", "setting": "[1]; pH 3.5, 25° C.", "value": 98.1, "unit": "%"}, {"measurement": "Purity (%) at Time (Months) 3", "setting": "[1]; pH 3.5, 25° C.", "value": 97.6, "unit": "%"}, {"measurement": "Purity (%) at Time (Months) 5", "setting": "[1]; pH 3.5, 25° C.", "value": 96.2, "unit": "%"}, {"measurement": "Purity (%) at Time (Months) 12", "setting": "[1]; pH 3.5, 25° C.", "value": 93.4, "unit": "%"}, {"measurement": "Purity (%) at Time (Months) 24", "setting": "[1]; pH 3.5, 25° C.", "value": 89.2, "unit": "%"}, {"measurement": "Purity (%) at Time (Months) 0", "setting": "[1]; pH 3.5, 40° C.", "value": 99.2, "unit": "%"}, {"measurement": "Purity (%) at Time (Months) 1", "setting": "[1]; pH 3.5, 40° C.", "value": 94.6, "unit": "%"}, {"measurement": "Purity (%) at Time (Months) 2", "setting": "[1]; pH 3.5, 40° C.", "value": 91.5, "unit": "%"}, {"measurement": "Purity (%) at Time (Months) 3", "setting": "[1]; pH 3.5, 40° C.", "value": 88.7, "unit": "%"}, {"measurement": "Purity (%) at Time (Months) 5", "setting": "[1]; pH 3.5, 40° C.", "value": 83.1, "unit": "%"}, {"measurement": "Purity (%) at Time (Months) 12", "setting": "[1]; pH 3.5, 40° C.", "value": 67.5, "unit": "%"}, {"measurement": "Purity (%) at Time (Months) 24", "setting": "[1]; pH 3.5, 40° C.", "value": 46.1, "unit": "%"}, {"measurement": "starting purity value", "setting": "[1]; time 0, 3.4 mg/mL", "value": 99.2, "unit": "%"}, {"measurement": "purity in most samples at all time points", "setting": "[2]", "value": 100, "unit": "%"}]}
